From PubChem BioAssay (NCI)
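In this assay, cells in 96-well plates receive the compound at five concentrations for 48 hours. Endpoints are linearly interpolated between the surrounding concentrations. At the GI50, growth is halved.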 For part of its entries the source gives two or more results. The list is limited to them. An entry can have further records. For some assays here: A record mostly stands for its own series of concentrations, not given here; some values may only mark the edge of a range.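 At the TGI there is no net growth.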 For some assays here: The values listed for one entry repeat one measurement in other runs, samples, wells, individuals or studies. Marks in square brackets tell the records apart. Letters hold for one entry only.

How the values were obtained:
Test in all cases: NCI tumour cell line growth inhibition, 48 h
[1] = test system: HOP-18 NSCLC
[2] = test system: HOP-62 NSCLC
[3] = test system: SNB-78 CNS
[4] = test system: SW-620 colon
[5] = test system: LOX IMVI melanoma
[6] = test system: CCRF-CEM leukemia
[7] = test system: SF-268 CNS
[8] = test system: HL-60(TB) leukemia
[9] = test system: OVCAR-4 ovarian
[10] = test system: RPMI-8226 leukemia
[11] = test system: SR leukemia
[12] = test system: DMS 114 small cell lung
[13] = test system: CAKI-1 renal
[14] = test system: MOLT-4 leukemia
[15] = test system: EKVX NSCLC
[16] = test system: A498 renal
[17] = test system: HCC-2998 colon
[18] = test system: SF-295 CNS
[19] = test system: OVCAR-3 ovarian
[20] = test system: MDA-MB-231 breast
[21] = test system: DU-145 prostate
[22] = test system: SNB-75 CNS
[23] = test system: UO-31 renal
[24] = test system: SK-MEL-2 melanoma
[25] = test system: SK-MEL-5 melanoma
[26] = test system: SF-539 CNS
[27] = test system: NCI-H522 lung
[28] = test system: RXF 393 renal
[29] = test system: UACC-257 melanoma
[30] = test system: OVCAR-8 ovarian
[31] = test system: PC-3 prostate
[32] = test system: NCI-H460 lung
[33] = test system: HS 578T breast
[34] = test system: DLD-1 colon
[35] = test system: SNB-19 CNS

In the case of CC[C@@]1(O)C(=O)OCc2c1cc1n(c2=O)Cc2cc3cc(Cl)ccc3nc2-1, the GI50 [1] is reported as < 1 nM and 36.6 nM, the TGI [1] is reported as 37.2 nM and 5.2 µM and the TGI [2] is reported as 1.01 nM and 13.1 nM. For the same compound, the TGI [3] was 837 nM and 77.2 µM, the GI50 [4] was 58.9 nM [1 test] and 5.13 nM [mean of 2 tests] and the TGI [5] was 235 nM [1 test] and 18.2 nM [mean of 2 tests]. For the same compound, the GI50 [6] was < 1 nM and 19.8 nM, the TGI [7] was 32.3 nM [1 test] and 347 nM [mean of 2 tests] and the TGI [8] was > 100 µM [1 test] and 5.14 nM [mean of 2 tests]. For the same compound, the TGI [9] was 12.8 µM [1 test] and 675 nM [mean of 2 tests], the TGI [10] was > 100 µM [1 test] and 468 nM [mean of 2 tests] and the TGI [11] was 12.1 nM and > 100 µM. For the same compound, the TGI [12] was 8.48 nM and 319 nM, the GI50 [13] was < 1 nM and 23.2 nM and the TGI [14] was > 100 µM [1 test] and 5.61 nM [mean of 2 tests].

CC(=O)N[C@H](C)[C@@H](O)[C@@H](C)[C@@H]1OC(=O)/C=C/C=C(C)\C=C\[C@]2(C)C[C@@H](NS(C)(=O)=O)C=C[C@@H]2/C=C(C)/C=C/[C@H]1C was tested, and the GI50 [15] was 49.2 nM and 2.74 µM, the TGI [16] was 90.4 nM and 1.76 µM and the GI50 [17] was 88.2 nM and 21.1 µM. For the same compound, the TGI [18] was 20.2 nM and > 43.5 µM, the GI50 [19] was 3.02 µM and 42.6 nM and the TGI [20] was 3.47 nM and 24.2 µM. For the same compound, the GI50 [21] was 540 nM and 23.1 nM and the TGI [22] was 17 nM and 2.1 µM.

In the case of Nc1nc(=O)n(C2CC(O)C(CO)O2)cc1F (configuration not stated), the GI50 [2] is reported as 4.97 nM and 152 nM, the GI50 [10] is reported as 7.06 nM [1 test] and 1.13 µM [mean of 2 tests] and the GI50 [23] is reported as 3.86 nM [1 test] and 83.1 nM [mean of 2 tests]. For the same compound, the GI50 [24] was 5.47 nM [1 test] and > 100 µM [mean of 2 tests].

With O=C1c2c(O)cccc2C(C(=O)CCCCCC(=O)C2c3cccc(O)c3C(=O)c3c(O)cccc32)c2cccc(O)c21 the TGI [25] was 1.39 µM and 15.4 µM, the TGI [3] was 1.53 µM and 17.8 µM and the TGI [26] was 1.15 µM and 16.4 µM. For the same compound, the TGI [27] was 1.57 µM and 19.4 µM.

In the case of Cc1ccc2c(c1)[n+](=O)c(C(=O)c1cccs1)c(C(F)(F)F)n2[O-], the TGI [2] is reported as 47.5 µM and 3.42 µM, the GI50 [28] is reported as 3.64 µM and 27.9 nM and the TGI [28] is reported as 13.3 µM and 256 nM. The TGI [29] was 10.3 µM and 889 nM, the TGI [30] was 50 µM and 732 nM and the GI50 [9] was 3.53 µM and 232 nM. For the same compound, the TGI [9] was 50 µM and 880 nM, the TGI [31] was 3.07 µM and 50.7 µM and the TGI [10] was 50 µM and 4.45 µM. For the same compound, the TGI [27] was 50 µM and 1.73 µM and the TGI [32] was 2.56 µM and 40.9 µM.

With COc1cc2c(Oc3ccc(NC(=O)C4(C(=O)Nc5ccc(F)cc5)CC4)cc3F)ccnc2cc1OCCCN1CCOCC1 the TGI [6] was > 100 µM [sample A, 1 test] and 3.38 µM [sample B, mean of 2 tests] and the TGI [33] was > 100 µM [sample A, 1 test] and 2.39 µM [sample B, mean of 2 tests].

CCN(CC)CCNc1c2ccccc2nc2cccc([N+](=O)[O-])c12 was tested, and the TGI [5] was 42.7 nM and 449 nM, the TGI [34] was 73.8 nM and 11.7 µM and the TGI [35] was 38.8 nM and 1.33 µM.
